Reference: PMC6919601, “Identification of Plasmodium dipeptidyl aminopeptidase allosteric inhibitors by high throughput screening” (PLoS ONE, 2019)
The campaign covered roughly 110,000 compounds. About 230 (0.21%) showed an effect of 50% or more. Some of the results follow.

Molecular target: DPAP1 (Plasmodium falciparum, UniProt Q8IIJ9)
Assay: primary screen, percent inhibition; read by cleavage of a fluorogenic dipeptide substrate; higher = more effect of the substance
Set-up: species or system P. falciparum D10 trophozoite lysates; single well
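Further: 30 min substrate incubation versus DMSO and 10 µM JCP410 controls.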

Sequence of DPAP1 (Q8IIJ9 whole entry, looked up): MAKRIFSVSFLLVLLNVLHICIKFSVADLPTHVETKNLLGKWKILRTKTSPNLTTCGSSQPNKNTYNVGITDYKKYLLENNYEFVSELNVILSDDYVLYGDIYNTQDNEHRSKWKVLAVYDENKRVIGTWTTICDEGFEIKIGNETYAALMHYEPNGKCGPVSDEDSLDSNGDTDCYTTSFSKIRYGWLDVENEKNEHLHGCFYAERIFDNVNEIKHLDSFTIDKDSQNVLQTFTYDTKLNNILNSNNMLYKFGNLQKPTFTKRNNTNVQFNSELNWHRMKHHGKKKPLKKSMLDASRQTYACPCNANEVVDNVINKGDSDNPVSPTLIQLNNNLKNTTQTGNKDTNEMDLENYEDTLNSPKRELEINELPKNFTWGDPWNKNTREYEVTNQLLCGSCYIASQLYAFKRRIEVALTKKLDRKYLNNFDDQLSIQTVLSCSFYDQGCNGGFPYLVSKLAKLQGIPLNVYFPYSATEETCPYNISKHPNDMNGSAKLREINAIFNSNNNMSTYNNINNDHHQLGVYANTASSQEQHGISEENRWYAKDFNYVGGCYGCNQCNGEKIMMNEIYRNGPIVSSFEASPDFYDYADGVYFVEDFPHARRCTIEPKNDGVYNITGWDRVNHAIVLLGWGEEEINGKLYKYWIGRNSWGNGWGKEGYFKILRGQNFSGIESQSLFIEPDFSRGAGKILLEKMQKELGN

| Compound | % Inhibition @ 10 uM [%] |
| --- | --- |
| Cc1c(CNCCCc2ccccc2)c(C(=O)O)c(C)n1Cc1ccc(F)cc1 | -3.67 |
| COc1cccc(N(CC(=O)N(C)Cc2ccccc2)S(=O)(=O)c2ccc(C)cc2)c1 | 8.26 |
| CCOC(=O)C1CCCN(Cc2ccc(Br)cc2)C1 (stereo not drawn) | 1.38 |
| CCOc1ccc(CNC(=O)c2oc3ccc4c(c3c2C)C(=O)CC2(CCCC2)O4)cc1 | -2.85 |
| Cc1cc2oc(C(=O)Nc3nonc3C)c(C)c2cc1C | 3.51 |
| CN1CCN(C(=O)COCc2cc(-c3ccc4c(c3)OCO4)on2)CC1 | 1.86 |
| COC(=O)c1ccc(NC(=O)C(c2ccccc2)c2ccccc2)cc1 | -1.86 |
| Cc1cccc(-n2ncc3c(NCCc4c[nH]c5ccccc45)ncnc32)c1 | 9.07 |
| Cc1cc(NC(=O)c2ccc3c(c2)CC(c2ccccc2)OC3=O)no1 (stereo not drawn) | -1.37 |
| COC(=O)c1c[nH]n2c(NC3CCCCC3)c(-c3ccc(Cl)cc3)nc12 | -1.99 |
| CCN(C(=O)c1ccc2c(c1)OCO2)c1nc(-c2ccccc2)cs1 | -5.98 |
| CCOCCCNC(=O)CN(C)c1nn2c(=O)cc(C)nc2s1 | 1.38 |
| COc1cc(C2NC(=O)NC(C)=C2C(=O)NCc2ccccc2)c(Cl)cc1O (stereo not drawn) | -7.99 |
| O=C(c1ccc([N+](=O)[O-])o1)N1CCc2ccccc21 | -2.55 |
| COc1ccc(OCc2cc(O)nc3ccccc23)cc1 | 2.72 |
| COc1ccc(/N=C2/S/C(=C\c3ccc(OC)c(C)c3)C(=O)N2C)cc1 | 6.69 |
| NC1CCCc2c1[nH]c1ccc([N+](=O)[O-])cc21 (stereo not drawn) | -0.693 |
| c1cncc(CNc2nc3ccccc3n3nnnc23)c1 | 1.15 |
| CC(NC(=O)CSCc1cccs1)c1ccccc1 (stereo not drawn) | 1.72 |
| CCOC(=O)c1ccc(C)c(CNC(=O)CSc2nnc(-c3ccc(F)cc3)n2C)c1 | 5.13 |
| COc1cc2c(cc1OC)C(c1cccc(Cl)c1)N(Cc1cccs1)CC2 (stereo not drawn) | -1.85 |
| Cc1c(Cc2ccccc2)sc(NC(=O)c2ccc(F)cc2)c1C(N)=O | -6.92 |
| CC1=NN(c2cccc(Br)c2)C(=O)/C1=C\c1cccc([N+](=O)[O-])c1 | -8.22 |
| O=C(/C=C\Nc1ccc(S(=O)(=O)Nc2ncccn2)cc1)c1cccs1 | -1.06 |
| CC(C)CCn1c(=O)c2ccccc2n2c(CCC(=O)NC(C)c3ccccc3)nnc12 (stereo not drawn) | 5.09 |

| Compound | % Inhibition @ 10 uM [%] |
| --- | --- |
| CC(=O)Nc1ccc(S(=O)(=O)Nc2nc3c(s2)CCCC3)cc1 | -4.67 |
| Cc1c(Cc2ccccc2)sc(NC(=O)COc2ccccc2Cl)c1C(N)=O | 17 |
| Cc1cccc(C)c1NC(=O)CN(c1ccccc1F)S(=O)(=O)c1ccccc1 | -3.39 |
| CCN(CC)S(=O)(=O)c1cnccc1N1CCN(c2cccc(Cl)c2)CC1 | -2.74 |
| CN(C)c1ccc(-c2[nH]c3c(=O)n(C)c(=O)n(C)c3c2O)cc1 | 0.345 |
| O=C(CSc1ccccn1)NCC(=O)c1ccccc1 | -4.48 |
| COc1ccc2c(c1)CCc1sc(NC(=O)c3ccccc3Cl)nc1-2 | -7.46 |
| C=CCc1cc(/C=C2/NC(=O)N(Cc3ccccc3F)C2=O)cc(OCC)c1O | -18.8 |
| O=C(O)c1ccc(-c2ccc(/C=C3\SC(=O)N(CC(=O)N4CCOCC4)C3=O)o2)cc1Cl | -3.04 |
| O=S(=O)(c1ccccc1Br)N1CCNCC1 | -0.671 |
| Cc1ccc(C(=O)N/C(=C\c2cn(S(=O)(=O)N(C)C)c3ccccc23)C(=O)NCCCO)cc1 | 4.8 |
| COc1cc(-c2noc(CCCC(=O)N3CCCCC3)n2)cc(OC)c1OC | 0.347 |
| CCCCn1nnc2sc3c(c2c1=O)CCCC3 | 0.561 |
| Cc1nn(CC(=O)NCCC(C)C)c(=O)c2cccn12 | -6.64 |
| CCN1C(=O)c2ccc(C(=O)NCc3ccc(C(=O)O)cc3)cc2C1=O | -1.24 |
| CCCn1c2ccccc2c2cnn(CC(=O)NC(C)CCc3ccccc3)c(=O)c21 (stereo not drawn) | 1.43 |
| O=C(NC1CCCCC1)c1cc2c(ccc3ccccc32)o1 | 49 |
| N#CC1=C(N)OC2=C(C(=O)CCC2)C1c1ccc(Cl)cc1Cl (stereo not drawn) | -0.128 |
| CCN(CC)C(=O)CSc1n[nH]c(-c2ccccc2OC)n1 | -3.75 |
| Cc1ccnc(NC(=O)C2c3ccccc3C(=O)N(C3CCCC3)C2c2cccs2)c1 (stereo not drawn) | 2.24 |
| CCN1CCN(Cc2cc(=O)oc3cc(C)ccc23)CC1 | 7.8 |
| Cc1ccccc1S(=O)(=O)Cc1ccc(C(=O)NCC2CCN(C(C)c3ccccc3)C2)o1 (stereo not drawn) | 3.47 |
| Cc1nc2sc(C(=O)NCc3ccc(Cl)cc3)c(N)c2c(C)c1C | -4.35 |
| CCCC(=O)C1=C(Nc2ccc3ccccc3c2)CC(C)(C)CC1=O | 0.121 |
| O=C(NC(c1ccccc1)c1ccccc1)C1CCN(S(=O)(=O)c2cccnc2)CC1 | 0.947 |

| Compound | % Inhibition @ 10 uM [%] |
| --- | --- |
| CN(Cc1ccccc1)S(=O)(=O)c1cc(Br)cnc1N | 2.32 |
| O=C(NCC1CCCO1)c1nn2c(C(F)(F)F)cc(-c3ccccc3)nc2c1Cl (stereo not drawn) | 3.96 |
| COc1ccc(C2(CNC(=O)/C=C/c3ccco3)CCCC2)cc1OC | 0.587 |
| CCOC(=O)C1=C(C)N=c2s/c(=C\c3ccc(C)o3)c(=O)n2C1c1ccccc1OC (stereo not drawn) | 3.06 |
| COc1ccc(OC)c(CNc2ccc(Br)c(C)c2)c1 | 3.27 |
| Cc1c(CNC(=O)c2cc3nc(-c4cccs4)cc(C(F)(F)F)n3n2)cnn1C | -2.9 |
| CC(CC(=O)N1CCN(S(=O)(=O)c2ccc(Cl)cc2)CC1)n1cncn1 (stereo not drawn) | -2.05 |
| Nc1ccccc1C(=O)NCCCCNC(=O)c1ccccc1N | -0.28 |
| CCSc1nc2ccc(OC)cc2cc1C#N | -0.864 |
| Cc1nn(C(C)C(=O)NCCN(C)C)c(=O)c2c1sc1ccccc12 (stereo not drawn) | -4.93 |
| CCc1nn(CCCC(=O)NCCC(C)C)c(=O)c2cc3occc3n12 | -3.79 |
| COc1ccccc1CNC(=O)CC(C)C | -6.24 |
| CC(C)CC(NC(=O)NCc1ccncc1)C(=O)NCC#N (stereo not drawn) | 0.744 |
| O=C(CSCc1c(Cl)cccc1Cl)Nc1ccc(C(=O)O)cc1 | 2.67 |
| COc1cc(CN2CCN(S(=O)(=O)c3ccc(Cl)cc3)CC2)ccc1OCc1ccccc1 | 3.47 |
| COc1ccc(N2CCN(Cc3cc(Br)ccc3OC)CC2)cc1 | 1.38 |
| CC1=C(C#N)C(c2ccccc2F)C2=C(c3ccccc3C2=O)N1C (stereo not drawn) | -5.63 |
| CCCOc1ccc(C(=O)Nc2ccccc2N2CCN(C(=O)C(C)C)CC2)cc1 | 0.316 |
| COc1ccc(-c2nc3ccccc3o2)cc1OC | 1.57 |
| Nc1nonc1C(=O)OCC(=O)N1CCCCC1 | 4.42 |
| CC(C)(C)OC(=O)N[C@@H](Cc1ccc(O)c([N+](=O)[O-])c1)C(=O)NCC#N | 4.63 |
| CN1C(=O)c2ccccc2C(C(=O)NCc2ccc(F)cc2)C1c1cn(C)c2ccccc12 (stereo not drawn) | 2.93 |
| O=C(c1cnn2c(C(F)(F)F)cc(-c3cccs3)nc12)N1CCC2(CC1)OCCO2 | -2.26 |
| O=C(Cn1ncc2c(Cl)cccc21)NCc1cccs1 | 3.84 |
| N#C/C(=C\c1ccc(Cl)cc1Cl)c1nc(-c2ccc([N+](=O)[O-])cc2)cs1 | -6.18 |

| Compound | % Inhibition @ 10 uM [%] |
| --- | --- |
| Cc1ccccc1C1C2=C(O)CCCC2=Nc2nc3ccccc3n21 (stereo not drawn) | 7.8 |
| c1ccc2c(c1)ccc1nc(-c3ccc4c(c3)OCO4)c3c(c12)CCCC3 | -2.69 |
| CCSc1nnc(-c2ccc(C)c(S(=O)(=O)N3CCN(C)CC3)c2)c2ccccc12 | -4.51 |
| CCOC(=O)N1CCN(C(=O)c2oc3ccc(S(=O)(=O)N4CCCCCC4)cc3c2C)CC1 | 2.59 |
| NC(=O)c1cnc2ccccc2n1 | 5.13 |
| COc1cc2c(cc1OC)C(c1cccc(Br)c1)N(C(C)=O)CC2 (stereo not drawn) | 1.08 |
| Cc1ccccc1C(=O)OC(C)CN1CCN(C)CC1 (stereo not drawn) | -3.63 |
| COc1ccccc1N1CCN(Cc2ccc(N(C)C)cc2)CC1 | 1.63 |
| COc1ccc(C2C(C(=O)c3ccc(F)cc3)=C(O)C(=O)N2Cc2ccco2)cc1OC (stereo not drawn) | 5.52 |
| O=C1C2C3C=CC(C4CC34)C2C(=O)N1CCc1ccccc1 (stereo not drawn) | -4.33 |
| CCc1ccc(C2=Nn3c(nnc3-c3cccc(F)c3)SC2)cc1 | 1.91 |
| Cc1ccc(S(=O)(=O)N2CC=C(c3c(C)n(CC(O)CN4CCCC4)c4ccccc34)CC2)cc1 (stereo not drawn) | 0.66 |
| CCCCNCc1c(C(=O)O)c(C)n(Cc2ccccc2F)c1C | 1.41 |
| Cc1ccc(NC(=O)CN(Cc2ccccc2)S(=O)(=O)c2ccc3nc(C)sc3c2)nc1 | 0.586 |
| CN1CCN(c2ccc3nnc(CCC(=O)Nc4ccccn4)n3n2)CC1 | -3.43 |
| CC1C(=O)CC(c2ccc(Cl)cc2)NC1c1ccc(Cl)cc1 (stereo not drawn) | -0.142 |
| CC(=O)Nc1ccc(CN2CCSCC2)cc1 | -10.3 |
| COc1ccccc1-c1nc(O)c2c(n1)Oc1c(cccc1OC)C2 | 0.655 |
| C=C1C(C(=O)Nc2ccccc2F)C1C(=O)Nc1ccccc1F (stereo not drawn) | 0.512 |
| O=C(CSc1nnc2sc3ccccc3n12)Nc1nccs1 | -4.64 |
| CC(C)C(=O)Nc1ccc(CN2CCOCC2)cc1 | -4.91 |
| CCc1c(C#N)c(N)nc(SCc2ccccc2)c1C#N | 42.7 |
| COC(=O)c1c(NC(=O)COc2ccc(Cl)c(C)c2)sc2c1CCC(C)C2 (stereo not drawn) | 7.63 |
| CC1CN(C2=NC(=O)/C(=C\c3ccc(O)cc3)S2)CC(C)O1 (stereo not drawn) | 2.13 |
